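Exposure lasted 48 hours, with cells grown in 96-well plates and compounds tested at five concentrations. TGI denotes the concentration required for complete inhibition of growth.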 The source holds more than one record for some entries. They are shown here; other results are not. An entry can have further records. Records of one sample usually come from different ranges of test concentrations, not given here; a value can be the end of its range.
Key:
Assay in all cases: NCI tumour cell line growth inhibition, 48 h
SR leukemia = tested on: SR leukemia
HT29 colon = tested on: HT29 colon
KM12 colon = tested on: KM12 colon

COc1cc2cc(C(=O)N3C[C@@H](CCl)c4c3cc(OC(=O)N3CCN(C(=O)CCC(=O)N5CCN(C)CC5)[C@@H]5CSSC[C@@H]53)c3ccccc43)[nH]c2c(OC)c1OC
TGI (SR leukemia): 25 µM and 925 nM
TGI (HT29 colon): 25 µM and 435 nM
TGI (KM12 colon): 25 µM and 464 nM

From PubChem BioAssay (NCI)
